Results from PubChem BioAssay AID485344 (National Center for Advancing Translational Sciences (NCATS), 2010).
The whole screen tested about 340,000 compounds, of which about 6,900 (2%) were called active. Cut-off read from the data, not from the text of the source: active = inhibition above about 30%; inactive = below that, where a call was filed. The list shows a part of the results, in another mix than the full data. The source gives no active or inactive call for entries shown without one.

The compounds below were run against D(2) dopamine receptor (Homo sapiens) (UniProt P14416) (assay: HTS Assay for Allosteric Antagonists of the Human D2 Dopamine Receptor: Primary Screen for Antagonists). Conditions: HEK293 TREx D2 cells, calcium flux, dopamine EC80; at 10 µM; stronger effect = higher value.
Procedure, shortened: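 Inhibition of EC80 dopamine-driven calcium flux, recorded kinetically, defines activity here; cells are a tetracycline-induced HEK293 T-REx line expressing force-coupled D2.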
Note: 0% is about no effect.

Sequence of UniProt P14416 (P14416 whole entry, looked up): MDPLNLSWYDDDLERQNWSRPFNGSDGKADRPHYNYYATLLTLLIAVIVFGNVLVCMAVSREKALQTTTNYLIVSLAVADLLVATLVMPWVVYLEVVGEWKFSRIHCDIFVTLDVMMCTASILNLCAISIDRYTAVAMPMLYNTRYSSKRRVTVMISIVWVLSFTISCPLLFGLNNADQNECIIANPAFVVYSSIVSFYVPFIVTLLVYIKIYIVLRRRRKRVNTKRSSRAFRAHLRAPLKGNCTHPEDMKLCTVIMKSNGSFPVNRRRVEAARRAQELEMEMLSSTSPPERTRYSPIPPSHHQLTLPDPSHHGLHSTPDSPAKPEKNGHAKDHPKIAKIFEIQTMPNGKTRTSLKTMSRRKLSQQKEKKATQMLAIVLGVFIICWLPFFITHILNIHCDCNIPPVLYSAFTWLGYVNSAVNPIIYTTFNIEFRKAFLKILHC

Structure (SMILES) | inhibition
COc1ccc(-c2c3c(=O)n(C)c(=O)n(C)c3cn2-c2cccc(N)c2)cc1 | 0.353%
COc1cc(-c2noc(CSc3nc(-c4ccc(F)cc4)cc(=O)[nH]3)n2)cc(OC)c1OC | -11.3%
COc1ccccc1NC(=O)Cn1cnc2c(nc3n2CCCCC3)c1=O | -7.51%
Cn1c(=O)c2c(nc(OCc3cccnc3)n2Cc2c(F)cccc2Cl)n(C)c1=O | active: 43.3%
CCC1CCC(C(=O)NC(C(=O)NCCN(CC(C)C)CC(C)C)C(C)C)CC1 (centres undefined) | 6.12%
CC(C)(C)c1ccc(CSc2nc3c(c(=O)[nH]2)CCCC3)cc1 | 8.49%
O=C(Nc1ccc(Cl)c(C(F)(F)F)c1)C1CCCN(S(=O)(=O)c2cccc3cccnc23)C1 (centres undefined) | 2.2%
Cc1ccccc1CNC(=O)c1ccccc1NC(=O)c1nsc2ccccc12 | 5.66%
CC1CCN(S(=O)(=O)c2ccc3c(c2)c(=O)c(C(=O)NCc2ccc(Cl)cc2)cn3C)CC1 | -13.4%
COc1ccccc1NC(=O)C(C)OC(=O)CCNS(=O)(=O)c1ccc(C)c(C)c1 (centres undefined) | active: 40%
COc1ccccc1NC(=O)c1oc2ccccc2c1NC(=O)C(C)C | -15.7%
CC(C)(C)C1CCC(OCC(O)CN2CCN(c3ccccn3)CC2)CC1 (centres undefined) | active: 63.5%
COc1cccc(CN2CCN(Cc3ccc(O)c(OC)c3)CC2CCO)c1 (centres undefined) | active: 36.3%
O=C1CCc2cc(S(=O)(=O)NCc3ccc(Cl)cc3)cc3c2N1CC3 | 3.52%
COc1cccc(-c2nnc(-c3cc4cc(Cl)ccc4oc3=O)o2)c1 | -15.4%
O=C(O)c1n[nH]c2c1CCCC2 | active: 56.9%
Cc1ccccc1Cc1c(C)nc2nc(SCC(=O)NCCCN3CCCCC3)nn2c1C | active: 75.4%
COc1ccc(-c2nc3scc(CCNS(=O)(=O)c4c(C)noc4C)n3n2)cc1OC | -18.6%
CCOC(=O)c1c(S(=O)(=O)NCC(=O)N2CCN(c3cccc(Cl)c3)CC2)c(C)n(C)c1C | -18.5%
COc1cccc(CNC(=O)c2[nH]c3cc(C)ccc3c2Sc2ccccc2)c1 | 10.1%
COc1cccc(-c2nnc3n(Cc4ccc(C)cc4)c(=O)c4ccccc4n23)c1O | 20%
CCCCN(Cc1cccs1)S(=O)(=O)c1cc(-c2cc(C)no2)ccc1C | -11.7%
CCN1CCN(c2csc3ccc(F)cc3c2=O)CC1 | 13.1%
O=C(NCCc1ccccc1)c1cc(-c2ccc(Br)cc2)on1 | 20.3%
CCOC(=O)c1c(C)oc2ncnc(N3CCN(c4ccc(C)cc4C)CC3)c12 | 0.983%

Structure (SMILES) | inhibition
Cc1sc2ncn(CC(=O)Nc3ccc(F)cc3Cl)c(=O)c2c1S(=O)(=O)N1CCN(c2ncccn2)CC1 | 17.8%
CCOC(=O)c1cccc(-n2nnc3c(sc4nc(C)c(Br)c(C)c43)c2=O)c1 | -14.1%
COc1ccccc1N1CCN(C(=O)c2c(-c3c(Cl)cccc3Cl)noc2C)CC1 | active: 40%
CCOC(=O)c1ccccc1NC(=O)Cn1c(=O)n(CCC(=O)NCc2ccccc2OC)c(=O)c2ccccc21 | 9.56%
COc1ccc(NC(=O)c2ccc3c(SCC(=O)O)c4c(nc3c2)CCCC4)cc1OC | 5.99%
CCCOc1ccc(C(=O)Nc2ccc3oc(-c4ccc5ccccc5c4)nc3c2)cc1 | -8.48%
CC(=O)c1cccc(NC(=O)CSc2nnc3ccc(-c4ccc(F)cc4)nn23)c1 | -10.5%
CN(C)c1ccc(CNC(=O)c2cnc3sc(N4CCCC4)nn3c2=O)cc1 | -14.7%
Cc1c(Br)c([N+](=O)[O-])nn1C(C)C(=O)Nc1ccc2c(c1)OCO2 (centres undefined) | active: 40.4%
COCCCNC(=O)c1[nH]c2ccccc2c1Sc1ccc(C)cc1 | -5.36%
CC1CCCCC1Nc1ncnc2sccc12 (centres undefined) | active: 36.4%
Cc1ccccc1NC(=O)Cn1c(=O)n(CCCCCC(=O)NCc2ccccc2Cl)c(=O)c2sccc21 | -3.34%
CCS(=O)(=O)N1CCc2cc(C(=O)NCc3ccc(Cl)cc3)ccc21 | 2.28%
Cc1ccc(NC(=O)/C=C/c2ccc(Cl)cc2)c(Br)c1 | 4.52%
COc1cc(C2CC(=O)c3c([nH]c(C(=O)OCc4ccc(C)cc4)c3C)C2)cc(OC)c1OC (centres undefined) | 15.9%
Cc1cccc(C)c1NCc1n[nH]c(=S)n1-c1ccccc1 | active: 51.3%
CCOC(=O)c1ccccc1NC(=O)Cn1c(=O)n(CCC(=O)N2CCc3ccccc3C2)c(=O)c2ccccc21 | -12.1%
Cc1cccc(C(c2sc3nc(-c4ccco4)nn3c2O)N2CCN(Cc3ccccc3)CC2)c1 (centres undefined) | -5.15%
COc1ccccc1-c1nnc(C2CCN(C(=O)c3cccc(Cl)c3)CC2)o1 | -15.3%
CC(C)OCCCNC(=O)Cc1ccc(F)cc1 | active: 57.1%
COc1cccc(CNC(=O)CSc2nc(=O)[nH]c3c2CCC3)c1 | -14%
CCCN(C(=O)C(=O)Nc1ccc2nc3n(c(=O)c2c1)CCCCC3)c1ccc(OCC)cc1 | 9.47%
O=C(CN1CCc2ccccc21)NC(=O)NC1CCCCC1 | active: 32.6%
O=C(c1ccccc1)C1CN(Cc2ccccc2)CCC1(O)c1ccccc1 (centres undefined) | active: 45.3%
CCOc1ccccc1C(=O)Nc1cccc2ccc(C)nc12 | 7.11%

Structure (SMILES) | inhibition
Cc1cccc2nc(-c3ccc(N(C)C)cc3)c(Nc3ccc4c(c3)OCO4)n12 | -14.7%
COc1ccc(CCNc2nc3ccc(Cl)cc3n3cnnc23)cc1OC | 0.166%
O=C(NCCc1csc(-c2ccc(Cl)cc2)n1)c1ccco1 | 3.03%
O=C(CCc1ccccc1)N(Cc1cccnc1)c1nc2c(F)cc(F)cc2s1 | -8.02%
Cc1ccc(C)c(NC(=O)N(C)CCc2c(C)nn(C)c2C)c1 | 6.75%
CC(C)c1ccc(-c2noc(SCC(=O)N3CCN(c4ccc(F)cc4)CC3)n2)cc1 | 5.31%
COc1ccc(CCNS(=O)(=O)c2cc(-c3cc(C)no3)ccc2OC)cc1OC | -18.4%
Cc1ccc(N2CC(C(=O)NCCS(=O)(=O)N3CCN(c4ccccc4)CC3)CC2=O)cc1C (centres undefined) | 2.26%
Cc1ccc(C)c(Nc2nn3c(=O)c4ccc(C(=O)NCCC5=CCCCC5)cc4nc3s2)c1 | 0.471%
COc1ccc([N+](=O)[O-])cc1NC(=O)C(C)N1CCCC1 (centres undefined) | active: 30.7%
CCNc1nc(N)nc(Oc2ccc(OCC(=O)OC)nn2)n1 | 25%
CCOc1ccc(-c2nc(CNC(=O)NC3CCCCC3)c(C)o2)cc1 | -14.6%
COc1ccc(-n2nnnc2-c2cccc(OC)c2)cc1 | active: 35.6%
Cc1ccc(C(=O)Nc2nc3nc(C)cc(=O)n3[nH]2)cc1 | -5.27%
COc1ccccc1NC(=O)CN1C(=O)CCSc2ccccc21 | -3.94%
COc1cc2ccccc2cc1C(=O)NCC(c1cccs1)N(C)C (centres undefined) | active: 55.5%
Cc1ccc(Cl)cc1NC(=O)CSCc1cnn(-c2ccccc2)c1-n1cccc1 | 2.5%
Cc1cccc(NS(=O)(=O)c2ccc3c(c2)CCN3C(=O)C2CC2)c1C | 10.9%
CCN(C(=O)c1cn(C)c(=O)c2ccccc12)c1cccc(C)c1 | -7.5%
CN1CCN(C(=O)c2ccc3c(c2)N(Cc2ccc(Cl)cc2)C(=O)c2ccccc2S3(=O)=O)CC1 | -20%
CCC(C)NC(=O)CSCc1nc(-c2ccc(C)cc2)oc1C (centres undefined) | -12.2%
O=C(c1ccccc1Br)N(Cc1ccccc1F)C1CCS(=O)(=O)C1 (centres undefined) | 11.1%
CCOc1ccc(CCNC(=O)c2ccc(-c3nc(CSc4ccccc4)c(C)o3)cc2)cc1 | 9.88%
COc1ccc(OCC(=O)N(Cc2ccc(C)o2)C2CCS(=O)(=O)C2)cc1 (centres undefined) | 17.2%
Cc1csc(SC(C)C(=O)Nc2ccc(Cl)cn2)n1 (centres undefined) | active: 43.2%

Structure (SMILES) | inhibition
CCc1ccc(N(CC)C(=O)c2sc3nc4n(c(=O)c3c2C)CCCC4)cc1 | 26.2%
Cc1c(CC(=O)N2CCN(C(=O)C3COc4ccccc4O3)CC2)c(=O)oc2c(O)c(O)ccc12 (centres undefined) | active: 60%
CCN1C(=O)c2ccccc2Sc2ccc(NC(=O)c3cccc(C)c3)cc21 | -16.7%
Cc1ccc(NC(=O)Nc2cccs2)c(C)c1 | -12.2%
CN(CCCNC(=O)c1cc2c(=O)n(C)c3ccccc3c2s1)Cc1ccccc1 | -19%
CCOC(=O)c1cc(OC(=O)c2ccccc2OC)n(-c2ccccc2)n1 | -4.73%
O=C1c2oc3ccccc3c(=O)c2C(c2cccnc2)N1CCCN1CCOCC1 (centres undefined) | active: 34.6%
COc1ccc(CCNC(=O)c2ccc3c(c2)N(Cc2cccc(Cl)c2)C(=O)c2ccccc2S3=O)cc1OC (centres undefined) | -14.9%
CCOC(=O)C1CCN(CC(O)COc2ccc(C(C)(C)CC)cc2)CC1 (centres undefined) | active: 80.2%
COC(=O)c1c(NC(=O)/C=C/c2ccc(OC)cc2)sc2c1CCC2 | 5.96%
COc1ccc(CNC(=O)CSc2ncc3c(n2)-c2cc(Cl)ccc2N(C)S3(=O)=O)cc1 | 5.78%
CCOC(=O)Cn1c(-c2cccs2)cc2cc(Cl)ccc21 | -0.0586%
CC(C)c1cnc2c(c1SCC(=O)Nc1ccc(C(N)=O)cc1)c(=O)n(C)c(=O)n2C | 15.5%
CCc1ccc(NC(=O)CC2C(=O)N(c3ccc(OC)cc3)C(=O)N2Cc2cccs2)cc1 (centres undefined) | 4.51%
COc1cc(OC)c(N(C)C(=O)CSc2c3c(nc4ccc(Cl)cc24)CCCC3)cc1Cl | -12.5%
O=C(Nc1cccc(Cl)c1Cl)c1cc(S(=O)(=O)N2CCCc3ccccc32)ccc1F | 22.4%
CCC(=O)N1CCCc2cc(S(=O)(=O)N3CCC(C(=O)Nc4cccc(Cl)c4)CC3)ccc21 | -6.91%
Cc1ccc(C(=O)Nc2ccc3oc(-c4cc(Br)ccc4Cl)nc3c2)cc1 | 1.53%
CCCCCCC(O)(c1ccc(OC)cc1)C(CN1CCOCC1)c1ccccc1 (centres undefined) | active: 30.7%
O=c1cc2nc(-c3ccccc3)nc(SCCOc3ccc(Cl)cc3)n2[nH]1 | 23.1%
Cc1nn2c(-c3ccco3)ccnc2c1-c1ccc(Cl)cc1 | 4.81%
CCOC(=O)c1cnc2c(C)cc(C)cc2c1Nc1ccccc1OCC | -14.9%
COc1ccc(C(=O)Nc2ccc3oc(-c4cc(Cl)ccc4Cl)nc3c2)cc1Br | 5.26%
Cc1ccc(C)c(Cn2c(=O)n(-c3ccc(F)cc3)c(=O)c3sc4ccccc4c32)c1 | 9.97%
